Source: PubChem BioAssay AID1460 (National Center for Advancing Translational Sciences (NCATS), 2008)
The whole screen tested about 270,000 compounds, of which about 5,800 (2.1%) were called active. The shares of active, inactive and inconclusive entries below differ from those in the screen. Calls come from the whole dose curve; as a rule, active = well fitted inhibition curve with a large enough effect; inconclusive = small, poorly fitted or top-dose-only effect; inactive = flat fitted curve, though single readings scatter. Potencies of inconclusive entries are doubtful fits and often do not repeat.

molecular target: Microtubule-associated protein tau (Homo sapiens) (UniProt P10636); assay: qHTS for Inhibitors of Tau Fibril Formation, Thioflavin T Binding; conditions: recombinant tau K18 P301L, heparin-induced fibrillization, ThT fluorescence; series mostly up to 57.4 µM; activity, negative = inhibition: at the top concentration; note: nearly all actives have a fitted effect of over 55% in size
In short: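 Fibril formation assay: tau K18 P301L at 15 uM with trace Alexa 594 label, heparin inducer 20 uM, pH 7 sodium acetate buffer, 37 C for 6 hr; endpoint ThT signal.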
% is set by controls: 0 for no effect and ±100 for the full control effect; potency is the fitted concentration of half-maximal effect; tags give direction and shape of the fitted curve.

Sequence of UniProt P10636 (P10636 whole entry, looked up): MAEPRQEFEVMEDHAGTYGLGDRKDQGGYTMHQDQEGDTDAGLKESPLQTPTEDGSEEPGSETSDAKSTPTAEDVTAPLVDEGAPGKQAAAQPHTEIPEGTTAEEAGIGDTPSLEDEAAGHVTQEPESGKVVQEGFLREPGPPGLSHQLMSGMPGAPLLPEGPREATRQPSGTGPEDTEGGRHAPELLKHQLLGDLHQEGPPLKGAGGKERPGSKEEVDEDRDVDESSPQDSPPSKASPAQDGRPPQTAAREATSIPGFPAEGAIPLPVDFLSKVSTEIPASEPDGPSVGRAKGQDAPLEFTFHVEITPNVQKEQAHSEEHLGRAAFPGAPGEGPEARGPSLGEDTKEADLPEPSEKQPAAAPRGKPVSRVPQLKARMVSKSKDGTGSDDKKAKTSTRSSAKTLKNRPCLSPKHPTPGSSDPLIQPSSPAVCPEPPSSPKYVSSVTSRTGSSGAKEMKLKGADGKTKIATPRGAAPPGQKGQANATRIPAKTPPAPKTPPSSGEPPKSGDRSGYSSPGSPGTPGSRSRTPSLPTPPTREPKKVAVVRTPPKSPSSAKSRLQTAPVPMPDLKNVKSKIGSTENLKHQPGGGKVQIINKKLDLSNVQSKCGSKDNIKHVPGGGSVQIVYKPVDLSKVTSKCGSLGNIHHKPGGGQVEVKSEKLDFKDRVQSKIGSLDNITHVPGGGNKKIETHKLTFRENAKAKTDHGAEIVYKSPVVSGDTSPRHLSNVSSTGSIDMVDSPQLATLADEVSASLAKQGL

`COc1ccc(N2CCN(C(=O)CSc3nc4[nH]ncc4c(=O)n3-c3ccc(Br)cc3)CC2)cc1` was tested. Which Potency did it give?
Its Potency is inconclusive: 17.8 µM [inhibitor, partial curve].

Which Potency does the source give for `Cc1ccccc1NS(=O)(=O)c1nnc(NC(=O)c2ccc(Cl)cc2)s1` here?
Its Potency is inconclusive: 14.1 µM [inhibitor, partial curve].

Which “activity, negative = inhibition” value does the source give for `CCN=C1S/C(=C\c2cn(C(C)=O)nc2-c2ccccc2)C(=O)N1CC` here?
Its value is inactive: -14.6%.

`COc1cc2c(cc1NC(=O)c1ccccc1F)CCCC2` was tested. Which “activity, negative = inhibition” value did it give?
The value was inactive: -10.4%.

For `CC(=O)c1ccc(OCCCC(=O)OCC(=O)N2CCN(c3ccccc3)CC2)cc1`, which Potency is on record?
Its Potency is inconclusive: 1.78 µM [inhibitor, partial curve].

`CCOc1cc(NC(=O)c2ccccc2C)c(OCC)cc1NC(=O)C1=Cc2ccccc2OC1` was tested. Which “activity, negative = inhibition” value did it give?
The value was inactive: 7.29%.

For `CCc1ccccc1NC(=O)Cn1c(=O)n(CCCS(=O)(=O)C2CCCCC2)c(=O)c2ccccc21`, which “activity, negative = inhibition” value is on record?
Its value is inactive: -6.06%.

`O=C(COc1ncnc2cc([N+](=O)[O-])ccc12)NCCc1ccc(Cl)cc1` was tested. Which Potency did it give?
Its Potency is inconclusive: 3.16 µM [inhibitor, partial curve, poor fit].

With `CCOC(=O)c1c(C)[nH]c(CCC(=O)NCCCN2CCN(c3cc(Cl)ccc3C)CC2)c1C` as the molecule, how does the Potency read?
Its Potency is inconclusive: 14.1 µM [inhibitor, partial curve].

With `COc1ccc(C(=O)C2CCCN(Cc3c[nH]c4ccccc34)C2)c(OC)c1` (stereo not drawn) as the molecule, how does the “activity, negative = inhibition” value read?
The value was inactive: -10.3%.

With `CN1C(=O)NC(c2ccccc2)C2=C1CN(Cc1ccco1)C2=O` (stereo not drawn) as the molecule, how does the Potency read?
The Potency was inconclusive: 31.6 µM [inhibitor, single point].

`COc1ccc(NC(=O)CCCn2c(=O)c3cccn3c3ccccc32)c(OC)c1` was tested. Which Potency did it give?
The Potency was inconclusive: 1 µM [inhibitor, full curve].

How did the Potency turn out when `COc1ccc(C(=O)Oc2c(Sc3ccc(Cl)cc3)c(C)nn2C(C)(C)C)cc1OC` was run?
The Potency was inconclusive: 31.6 µM [inhibitor, single point].

How did the Potency turn out when `CC(=O)N1CCN(c2cc(N3CCCC3)c(F)cc2[N+](=O)[O-])CC1` was run?
Its Potency is inconclusive: 25.1 µM [inhibitor, partial curve].

`CCc1ccc(-n2nc3ccc(NC(=O)c4ccc5c(c4)OCO5)cc3n2)cc1` was tested. Which Potency did it give?
Its Potency is inconclusive: 6.31 µM [inhibitor, partial curve, poor fit].

`CCCCn1c(N)c(-c2nc3ccccc3s2)c2c([N+](=O)[O-])nn(CC)c(=O)c21` was tested. Which Potency did it give?
The Potency was inconclusive: 11.2 µM [inhibitor, partial curve].

`CCS(=O)(=O)N1CCN(c2ccc([N+](=O)[O-])c(NCc3ccccc3)c2)CC1` was tested. Which Potency did it give?
Its Potency is inconclusive: 14.1 µM [inhibitor, partial curve].

How did the Potency turn out when `CC1CCc2nn(CC(=O)NCc3ccc(F)cc3)cc2C1` (stereo not drawn) was run?
The Potency was inconclusive: 28.2 µM [inhibitor, single point].

`CCOC(=O)CSC1=NC(=O)/C(=C\c2ccc(OC(C)=O)cc2)S1` was tested. Which Potency did it give?
The Potency was inconclusive: 31.6 µM [inhibitor, partial curve].

For `Cn1c(=O)c2c(nc(N3CCCCC3)n2CCCNC2=NCCCC2)n(C)c1=O`, which “activity, negative = inhibition” value is on record?
Its value is inactive: -8.22%.

`Cc1ccc2nc(NC(=O)CSc3nc4ccccc4o3)sc2c1` was tested. Which Potency did it give?
The Potency was inconclusive: 1.58 µM [inhibitor, full curve].

How did the “activity, negative = inhibition” value turn out when `O=C(NCC(c1ccc(F)cc1)N1CCOCC1)c1cccc(Br)c1` (stereo not drawn) was run?
Its value is inactive: -0.719%.

`Cc1cc(OC(=O)c2c(Cl)cc(Cl)cc2Cl)nc(C)n1` was tested. Which Potency did it give?
The Potency was inconclusive: 15.8 µM [inhibitor, partial curve].

For `CSc1nc2oc3c(c2c2nncn12)CC(C)(C)SC3`, which Potency is on record?
The Potency was inconclusive: 31.6 µM [inhibitor, single point].

Which “activity, negative = inhibition” value does the source give for `COc1ccc(NS(=O)(=O)c2cc(NC(=O)CC3CCCC3)ccc2N2CCOCC2)cc1` here?
Its value is inactive: -14%.

`O=C(/C=C/c1ccc(F)cc1)NC(=S)Nc1ccccc1C(=O)NC1CCCCC1` was tested. Which “activity, negative = inhibition” value did it give?
The value was inactive: 2.71%.

How did the “activity, negative = inhibition” value turn out when `CCNC(=O)CCSc1nnc(-c2ccc(O)cc2)o1` was run?
The value was inactive: -8.13%.

`O=c1oc2ccc3ccccc3c2cc1-c1nnc(Nc2ccccc2)s1` was tested. Which Potency did it give?
Its Potency is inconclusive: 7.94 µM [inhibitor, partial curve].

`CCCC(=O)OCC(=O)Nc1ccc2[nH]c(=O)[nH]c2c1` was tested. Which Potency did it give?
Its Potency is inconclusive: 22.4 µM [inhibitor, partial curve].

Which “activity, negative = inhibition” value does the source give for `CC(C)C1C(c2ccccc2)NC(c2ccccc2)CC1(O)c1ccc(F)cc1` (stereo not drawn) here?
Its value is inactive: -7.57%.

`O=C(CSc1nnc(-c2cccnc2)n1Cc1ccco1)c1ccccc1` was tested. Which Potency did it give?
The Potency was inconclusive: 25.1 µM [inhibitor, partial curve].

With `COCc1cc(=O)[nH]c(Nc2nc3ccc(C)cc3o2)n1` as the molecule, how does the Potency read?
Its Potency is inconclusive: 20 µM [inhibitor, single point].

Which Potency does the source give for `CN1c2ccsc2C(O)=C(C(=S)Nc2ccc(F)c(Cl)c2)S1(=O)=O` here?
Its Potency is active: 20 µM.

With `O=C(N/N=C/c1cc2c(cc1Cl)OCO2)c1ccc2c(c1)OCCO2` as the molecule, how does the Potency read?
Its Potency is inconclusive: 3.55 µM [inhibitor, partial curve].

How did the Potency turn out when `CCN1C(=O)/C(=C\c2ccc(-c3ccc([N+](=O)[O-])cc3OC)o2)SC1=Nc1cccc(C(=O)O)c1` was run?
Its Potency is active: 14.1 µM.

Which “activity, negative = inhibition” value does the source give for `CCOc1ccc(NC(=O)Cn2nnc(C(=O)OC)c2C(=O)OC)cc1` here?
The value was inactive: -2.46%.

With `Cc1ccc(C(=O)NCC(=O)OCc2cc(=O)n3nc(C4CCCCC4)sc3n2)cc1` as the molecule, how does the Potency read?
The Potency was inconclusive: 4.47 µM [inhibitor, partial curve, poor fit].

Which Potency does the source give for `C=CCn1c(C)cc(C(=O)CSc2nnc(NCc3ccccc3)s2)c1C` here?
The Potency was inconclusive: 44.7 µM [inhibitor, single point].

Which Potency does the source give for `CCCCCCCOC(=O)C[N+](C)(C)CCOC1CC2CCC1(C)C2(C)C` (stereo not drawn) here?
The Potency was inconclusive: 25.1 µM [inhibitor, single point].

How did the “activity, negative = inhibition” value turn out when `CCOC(=O)COc1ccc2nsnc2c1Cl` was run?
Its value is inactive: -12.4%.

For `COc1ccc(-n2cc(CNCCc3cnc[nH]3)c(-c3cccc(F)c3)n2)cc1`, which “activity, negative = inhibition” value is on record?
Its value is inactive: 13.2%.

With `CCCCn1c(Oc2cccc(C(=O)OC)c2)nc2c1c(=O)n(C)c(=O)n2C` as the molecule, how does the “activity, negative = inhibition” value read?
Its value is inactive: 4.61%.

Which Potency does the source give for `COc1cccc(NC(=O)CSc2nc3c(sc4ccccc43)c(=O)n2CCN(C)C)c1` here?
The Potency was inconclusive: 11.2 µM [inhibitor, partial curve].

How did the Potency turn out when `O=C(c1ccccc1F)N1CCN(c2ccc([N+](=O)[O-])c(N3CCOCC3)c2)CC1` was run?
Its Potency is inconclusive: 12.6 µM [inhibitor, partial curve].

For `CN=c1scc(C)n1/N=C/c1cc(Br)c(O)c(OC)c1`, which Potency is on record?
Its Potency is active: 12.6 µM.

How did the Potency turn out when `CCN1CCN(c2csc3ccc(Cl)cc3c2=O)CC1` was run?
The Potency was inconclusive: 25.1 µM [inhibitor, single point].

`C=CCc1cccc(/C=N/c2ncccc2O)c1O` was tested. Which Potency did it give?
Its Potency is inconclusive: 11.2 µM [inhibitor, partial curve].

`COc1ccccc1N1CCN(C(c2cc3ccc(C)cc3[nH]c2=O)c2nnnn2C2CCCC2)CC1` (stereo not drawn) was tested. Which Potency did it give?
The Potency was inconclusive: 17.8 µM [inhibitor, single point].

With `CN(C)/N=C/c1ccc(Sc2ccc([N+](=O)[O-])cc2[N+](=O)[O-])o1` as the molecule, how does the Potency read?
Its Potency is inconclusive: 10 µM [inhibitor, partial curve, poor fit].

For `COc1ccc(Cl)cc1NC(=O)C(C)n1nnc2sc3c(c2c1=O)CCCC3` (stereo not drawn), which Potency is on record?
The Potency was inconclusive: 8.91 µM [inhibitor, single point].

With `NNC(=O)c1ccc(COc2cccc3cccnc23)cc1` as the molecule, how does the Potency read?
Its Potency is inconclusive: 10 µM [inhibitor, partial curve].

Which Potency does the source give for `O=C(C1=NN(c2ccccc2)C2C(=O)N(c3ccc(Cl)cc3)C(=O)C12)c1ccccc1` (stereo not drawn) here?
Its Potency is inconclusive: 31.6 µM [activator, single point].

Which “activity, negative = inhibition” value does the source give for `O=C(NC1CCCCCC1)C(=S)NCCc1ccccc1` here?
Its value is inactive: -8.68%.

`COC(=O)CCCC1=CC2=C(c3ccccc3)C(=O)C(C)(OC(=O)C3CCCC3)C(=O)C2=CN1CC(C)C` (stereo not drawn) was tested. Which Potency did it give?
The Potency was inconclusive: 15.8 µM [inhibitor, partial curve].

With `CC(C)N1CCc2c(sc(N)c2C#N)C1` as the molecule, how does the Potency read?
Its Potency is inconclusive: 20 µM [inhibitor, partial curve].

With `Cc1noc(NS(=O)(=O)c2ccc(N/C=C\C(=O)c3ccc(Br)cc3)cc2)c1C` as the molecule, how does the Potency read?
Its Potency is active: 12.6 µM.

How did the “activity, negative = inhibition” value turn out when `Cc1ccc(C)c(CN2C(=O)c3ccccc3Sc3ccc(C(=O)NCc4ccco4)cc32)c1` was run?
Its value is inactive: -3.03%.

Which Potency does the source give for `CCc1cccc(C)c1Nc1c(-c2ccc(N(C)C)cc2)nc2ncccn12` here?
Its Potency is active: 14.1 µM.

How did the Potency turn out when `Cc1c(C(=O)N/N=C/c2ccc(N3CCOCC3)cc2)nc2ccccn12` was run?
The Potency was inconclusive: 14.1 µM [inhibitor, partial curve].

With `NC(=O)c1c(NC(=S)Nc2ccc(F)cc2)sc2c1CCCC2` as the molecule, how does the Potency read?
Its Potency is inconclusive: 17.8 µM [inhibitor, partial curve].

For `Nc1c(C(=O)c2ccccc2O)cnn1-c1ccc(S(=O)(=O)N2CCOCC2)cc1[N+](=O)[O-]`, which Potency is on record?
The Potency was inconclusive: 0.794 µM [inhibitor, partial curve].

With `CCC(=O)c1cc(F)c(N2CCN(C(=O)c3ccco3)CC2)cc1C` as the molecule, how does the Potency read?
Its Potency is inconclusive: 5.01 µM [inhibitor, partial curve].

For `CCOc1ccc(C(=O)N2CCCN(C(=O)c3ccc(OCC)cc3)CC2)cc1`, which “activity, negative = inhibition” value is on record?
The value was inactive: -8.95%.

With `COc1cc(C2Nc3cccc4cccc(c34)N2)cc(OC)c1O` as the molecule, how does the Potency read?
Its Potency is active: 15.8 µM.

For `NC(=O)CC(NC(=O)Cc1cccc2ccccc12)c1ccc(NC2CCCCCCC2)c([N+](=O)[O-])c1` (stereo not drawn), which Potency is on record?
The Potency was inconclusive: 28.2 µM [inhibitor, single point].

For `COc1cccc(NC(=O)CSc2nc(O)c(C/C=C/c3ccccc3)c(=O)[nH]2)c1`, which Potency is on record?
The Potency was inconclusive: 39.8 µM [inhibitor, single point].

How did the Potency turn out when `COc1cc(NC(=O)c2nc3cc(C)c(C)cc3n(C)c2=O)cc(OC)c1OC` was run?
Its Potency is inconclusive: 0.708 µM [inhibitor, full curve].

How did the Potency turn out when `COc1ccc(NS(=O)(=O)c2cc(NC(=O)c3cnc(C)cn3)ccc2N2CCCC2)cc1` was run?
The Potency was inconclusive: 8.91 µM [inhibitor, partial curve].
